Assay results reported in PubChem BioAssay AID1745853 (National Center for Advancing Translational Sciences (NCATS), 2022).
Several values for one entry are separate records, joined by “and”; a condition that tells them apart may be missing. Identical values can stand only once. This is one part of the list. These are further read-outs of the screen, such as a control signal, another cell line or another target. No call is given for them.

Key:
Experiment in all cases: Primary Screen for Target Class Profiling of Small Molecule Inhibitors of Methyltransferases
[1] = target: Glycine N-methyltransferase (Homo sapiens) (UniProt Q14749); details: purified enzyme, MTase-Glo SAH luminescence; measured here: GNMT inhibition; at 40 µM; stronger effect = lower value
Summary of the method: (§1)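 Each enzyme was reacted with SAM and its substrate, with compounds tested once at 40 uM; SAH formed was read by MTase-Glo luminescence.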

[2] = target: Guanidinoacetate N-methyltransferase (Homo sapiens) (UniProt Q14353); details: purified enzyme, MTase-Glo SAH luminescence; measured here: GAMT inhibition; at 40 µM; stronger effect = lower value
Summary of the method: as §1

[3] = target: Histamine N-methyltransferase (Homo sapiens) (UniProt P50135); details: purified enzyme, MTase-Glo SAH luminescence; measured here: HNMT inhibition; at 40 µM; stronger effect = lower value
Summary of the method: as §1

[4] = target: Nicotinamide N-methyltransferase (Homo sapiens) (UniProt P40261); details: purified enzyme, MTase-Glo SAH luminescence; measured here: NNMT inhibition; at 40 µM; stronger effect = lower value
Summary of the method: as §1

[5] = target: Phenylethanolamine N-methyltransferase (Homo sapiens) (UniProt P11086); details: purified enzyme, MTase-Glo SAH luminescence; measured here: PNMT inhibition; at 40 µM; stronger effect = lower value
Summary of the method: as §1
On the % scale 0 is the no-effect control and ±100 the full control effect.

SMILES: CCOC(=O)c1cc2n(n1)CC(C)(C(=O)NCc1ccccc1OC)N(c1ccc(CC)cc1)C2=O (configuration not stated)
- activity change, negative = inhibition [1]: 6.82%
- activity change, negative = inhibition [2]: 0%
- activity change, negative = inhibition [3]: 11.4%
- activity change, negative = inhibition [4]: 6.86%
- activity change, negative = inhibition [5]: 5.77%

SMILES: COCCN1C(=O)c2cc3ccc(OC)cc3n2CC1(C)C(=O)NC1CCCCCC1 (configuration not stated)
- activity change, negative = inhibition [1]: 1.58%
- activity change, negative = inhibition [2]: 0%
- activity change, negative = inhibition [3]: 0.478%
- activity change, negative = inhibition [4]: 1.25%
- activity change, negative = inhibition [5]: -1.33%

SMILES: COc1cccc(CSc2nnc3n(CCc4ccccc4)c(=O)c4ccccc4n23)c1
- activity change, negative = inhibition [1]: -4.7%
- activity change, negative = inhibition [2]: -0.931%
- activity change, negative = inhibition [3]: 4.61%
- activity change, negative = inhibition [4]: -8.29%
- activity change, negative = inhibition [5]: -1.23%

SMILES: CCOC(=O)Nc1ccc(NCc2ccc(F)cc2)nc1N
- activity change, negative = inhibition [1]: -78%
- activity change, negative = inhibition [2]: -67.1%
- activity change, negative = inhibition [3]: -12.7%
- activity change, negative = inhibition [4]: -24.6%
- activity change, negative = inhibition [5]: -13%

SMILES: COc1ccccc1CNC(=O)C1c2c(n(C)c3ccccc23)SCC(=O)N1c1cc(C)cc(C)c1 (configuration not stated)
- activity change, negative = inhibition [1]: 6.83%
- activity change, negative = inhibition [2]: 0.879%
- activity change, negative = inhibition [3]: 0.533%
- activity change, negative = inhibition [4]: 2.52%
- activity change, negative = inhibition [5]: 5.43%

SMILES: CC1(C(=O)NC2CCCC2)Cn2c(ccc2-c2ccco2)C(=O)N1c1ccc2c(c1)OCO2 (configuration not stated)
- activity change, negative = inhibition [1]: -22.6%
- activity change, negative = inhibition [2]: -12.1%
- activity change, negative = inhibition [3]: -5.84%
- activity change, negative = inhibition [4]: -15.3%
- activity change, negative = inhibition [5]: -13.4%

SMILES: Cc1cc(C)cc(NC(=O)CSc2nnc3n(CCc4ccccc4)c(=O)c4ccccc4n23)c1
- activity change, negative = inhibition [1]: 7.54%
- activity change, negative = inhibition [2]: 1.13%
- activity change, negative = inhibition [3]: 12.7%
- activity change, negative = inhibition [4]: 6.43%
- activity change, negative = inhibition [5]: 7.2%

SMILES: N#Cc1cccc(C(=O)N2CCCOCCNC(=O)CC2)c1
- activity change, negative = inhibition [1]: -3.2%
- activity change, negative = inhibition [2]: -13.8%
- activity change, negative = inhibition [3]: -2.56%
- activity change, negative = inhibition [4]: -6.56%
- activity change, negative = inhibition [5]: -2.2%

SMILES: C[C@@H]1C[C@@H]2O[C@H]2/C=C\C=C\C(=O)Cc2c(Cl)c(O)cc(O)c2C(=O)O1
- activity change, negative = inhibition [1]: -9.16%
- activity change, negative = inhibition [3]: 7.71%

SMILES: C[C@@H]1C(=O)O[C@H]2CC34[C@H]5C[C@@H](C(C)(C)C)C36[C@@H](OC(=O)[C@@H]6O)OC4(C(=O)O5)[C@]21O (some centres not stated)
- activity change, negative = inhibition [1]: -2.9%
- activity change, negative = inhibition [2]: -11%
- activity change, negative = inhibition [3]: 7.18%
- activity change, negative = inhibition [4]: -20.9%
- activity change, negative = inhibition [5]: 0.568%

SMILES: COc1ccc(S(=O)(=O)Nc2ccc(C)n(CC(=O)O)c2=O)cc1
- activity change, negative = inhibition [1]: -5.58%
- activity change, negative = inhibition [2]: -11.5%
- activity change, negative = inhibition [3]: -4.21%
- activity change, negative = inhibition [4]: -12.6%
- activity change, negative = inhibition [5]: -9.31%

SMILES: C=CCCC(CN1CCCOCC1)Oc1nccc(N(C)CC)n1 (configuration not stated)
- activity change, negative = inhibition [1]: -3.11%
- activity change, negative = inhibition [2]: -1.91%
- activity change, negative = inhibition [3]: -1.19%
- activity change, negative = inhibition [4]: -7.99%
- activity change, negative = inhibition [5]: 0.96%

SMILES: CCCn1c(=O)c2ccccc2n2c(=O)n(CC(=O)Nc3ccc(C)c(C)c3)nc12
- activity change, negative = inhibition [1]: 7.5%
- activity change, negative = inhibition [2]: 4.31%
- activity change, negative = inhibition [3]: 11.1%
- activity change, negative = inhibition [4]: 4.4%
- activity change, negative = inhibition [5]: 6.11%

SMILES: Cn1cncc1C(N)(c1ccc(Cl)cc1)c1ccc2c(c1)c(-c1cccc(Cl)c1)cc(=O)n2C (configuration not stated)
- activity change, negative = inhibition [1]: -43.9%
- activity change, negative = inhibition [2]: -5.24%
- activity change, negative = inhibition [3]: -43.3%
- activity change, negative = inhibition [4]: -75.7%
- activity change, negative = inhibition [5]: -29.4%

SMILES: COC(=O)c1cc2n(n1)CC(C)(C(=O)NC1CCC(C)CC1)N(c1ccc(Cl)cc1C)C2=O (configuration not stated)
- activity change, negative = inhibition [1]: 8.06%
- activity change, negative = inhibition [2]: 0.013%
- activity change, negative = inhibition [3]: 10%
- activity change, negative = inhibition [4]: 6.39%
- activity change, negative = inhibition [5]: 5.42%

SMILES: CC1(C(=O)NC2CCCC2)Cn2c(cc3sccc32)C(=O)N1CCc1ccccc1 (configuration not stated)
- activity change, negative = inhibition [1]: -8.3%
- activity change, negative = inhibition [2]: 0.862%
- activity change, negative = inhibition [3]: -15.9%
- activity change, negative = inhibition [4]: -10.9%
- activity change, negative = inhibition [5]: -9.29%

SMILES: O=C1O[C@@H]2CN(c3ncccn3)C[C@@H]2N1CCc1ccc(F)cc1
- activity change, negative = inhibition [1]: -1.32%
- activity change, negative = inhibition [2]: 2.46%
- activity change, negative = inhibition [3]: 1.59%
- activity change, negative = inhibition [4]: -0.714%
- activity change, negative = inhibition [5]: 16.6%

SMILES: O=C(NO)c1ccc(CC(=O)N(CCO)c2ccccc2)cc1
- activity change, negative = inhibition [1]: 1.54% and -11%
- activity change, negative = inhibition [2]: 6.42%
- activity change, negative = inhibition [3]: 10.7% and 1.24%
- activity change, negative = inhibition [4]: -6.55% and 4.01%
- activity change, negative = inhibition [5]: 4.46% and 38.5%

SMILES: COc1ccc(S(=O)(=O)N2CCCC(c3nnnn3-c3ccccc3)C2)cc1 (configuration not stated)
- activity change, negative = inhibition [1]: -1.15%
- activity change, negative = inhibition [2]: 1.19%
- activity change, negative = inhibition [3]: 4.66%
- activity change, negative = inhibition [4]: -2.23%
- activity change, negative = inhibition [5]: 4.84%

SMILES: C=C1C(=O)O[C@@H]2C[C@]3(C)[C@@H](CCC(C)=O)[C@@H]3C[C@H]12
- activity change, negative = inhibition [1]: -0.678%
- activity change, negative = inhibition [2]: -2.82%
- activity change, negative = inhibition [3]: 1.9%
- activity change, negative = inhibition [4]: -12%
- activity change, negative = inhibition [5]: -9.28%
